Results from paper PMC5741831, “Structural determinants for protein unfolding and translocation by the Hsp104 protein disaggregase” (Bioscience Reports, 2017).

B1: Hsp104GYG (natural protein)
chain: not shown
notes: Hsp104, S. cerevisiae, full length, loop-1 mutant with Lys256 and Lys258 changed to glycine; source: E. coli BL21-CodonPlus (DE3)-RIL, purified (Ni-NTA, size-exclusion chromatography); not shown: His6, N-terminal, cleaved
B2: Hsp104_(4D) (natural protein)
chain: not shown
notes: Hsp104, S. cerevisiae, full length, all four loop-2 residues (291Gly-Asn-Gly-Lys294) replaced by aspartate; source: E. coli BL21-CodonPlus (DE3)-RIL, purified (Ni-NTA, size-exclusion chromatography); not shown: His6, N-terminal, cleaved
B3: Hsp104_(4A) (natural protein)
chain: not shown
notes: Hsp104, S. cerevisiae, full length, loop-2 (291Gly-Asn-Gly-Lys294) replaced by four alanines; source: E. coli BL21-CodonPlus (DE3)-RIL, purified (Ni-NTA, size-exclusion chromatography); not shown: His6, N-terminal, cleaved
B4: Hsp104_(Y257A) (natural protein)
chain: not shown
notes: Hsp104, S. cerevisiae, full length, loop-1 mutant Y257A; also called Hsp104KAK; source: E. coli BL21-CodonPlus (DE3)-RIL, purified (Ni-NTA, size-exclusion chromatography); not shown: His6, N-terminal, cleaved
B5: Hsp104_(1D) (natural protein)
chain: not shown
notes: Hsp104, S. cerevisiae, full length, loop-2 mutant with Asn292 changed to aspartate; source: E. coli BL21-CodonPlus (DE3)-RIL, purified (Ni-NTA, size-exclusion chromatography); not shown: His6, N-terminal, cleaved
B6: Hsp104_(V663G) (natural protein)
chain: not shown
notes: Hsp104, S. cerevisiae, full length, loop-3 mutant V663G; source: E. coli BL21-CodonPlus (DE3)-RIL, purified (Ni-NTA, size-exclusion chromatography); not shown: His6, N-terminal, cleaved
B7: Hsp104GAG (natural protein)
chain: not shown
notes: Hsp104, S. cerevisiae, full length, loop-1 mutant with the 256Lys-Tyr-Lys258 tripeptide changed to Gly-Ala-Gly; source: E. coli BL21-CodonPlus (DE3)-RIL, purified (Ni-NTA, size-exclusion chromatography); not shown: His6, N-terminal, cleaved
B8: Hsp104_(4G) (natural protein)
chain: not shown
notes: Hsp104, S. cerevisiae, full length, loop-2 (291Gly-Asn-Gly-Lys294) replaced by four glycines; source: E. coli BL21-CodonPlus (DE3)-RIL, purified (Ni-NTA, size-exclusion chromatography); not shown: His6, N-terminal, cleaved

Biological target: the molecule itself
Experiment: SEC; Superdex 200 10/300 GL, 25 mM Tris/HCl pH 7.5, 150 mM NaCl, 5% glycerol, 1 mM DTT; without nucleotide; oligomeric state of the protein with itself

| Protein | stoichiometry N | binding result |
| --- | --- | --- |
| B1 | 6 | – |
| B2 | 6 | – |
| B3 | 6 | – |
| B4 | 6 | – |
| B5 | 6 | – |
| B6 | – | binds |
| B7 | 6 | – |
| B8 | 6 | – |
